The list shows a part of the results. At the low end of the ranking the order means little. Measured with an extract: partners may take part in the binding.

This note sets out measurements from paper PMC10726135.

The experiment deals with T1, HNF4alpha8 (COS-7 nuclear extract) (UniProt P41235-5).
T1 sequence: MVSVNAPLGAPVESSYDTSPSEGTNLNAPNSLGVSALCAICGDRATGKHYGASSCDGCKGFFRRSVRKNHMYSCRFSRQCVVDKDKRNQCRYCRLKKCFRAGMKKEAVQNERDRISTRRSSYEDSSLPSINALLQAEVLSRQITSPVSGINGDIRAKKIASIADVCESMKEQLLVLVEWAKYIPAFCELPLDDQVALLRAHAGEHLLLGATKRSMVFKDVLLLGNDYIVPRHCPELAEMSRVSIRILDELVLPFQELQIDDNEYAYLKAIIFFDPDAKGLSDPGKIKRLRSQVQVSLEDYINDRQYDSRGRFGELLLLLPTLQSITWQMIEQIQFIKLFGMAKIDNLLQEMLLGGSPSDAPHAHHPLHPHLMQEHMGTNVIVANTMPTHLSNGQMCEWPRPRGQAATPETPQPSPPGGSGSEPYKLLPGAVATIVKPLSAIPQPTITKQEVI
The experiment can be described thus: protein-binding microarray. Particulars: COS-7 nuclear extract on double-stranded Agilent 4x180k PBM; binding buffer, salt, pH and temperature not given; high values mean tight binding; double strand, one strand shown; sequences stand for … in …GCCTAGGGAGATTAGAGTATCGGTCGA
Regarding TAGCATAATCAAAGAGAAAAACATTGCATA, the binding signal (log2 normalized intensity) was -1.19. Regarding AGAATCTAATCAGGCCTCCCTCCCTCCCCC, the binding signal (log2 normalized intensity) came out at 5.62.

Take AATGGATGGCAAATAAAGGAACTCTTATCT: the binding signal (log2 normalized intensity) is -1.27. Regarding GAATTGTCTAACCGCAGCAAGACACTTCCA, the binding signal (log2 normalized intensity) was -1.47.

Take GCATCACTCTTGCCACAGAACAGGCTGTTT: the binding signal (log2 normalized intensity) is -1.35. Turning to CACAAGCTGGGTCAACATCAGCCCTCCTAG, the binding signal (log2 normalized intensity) was 1.31. On to TCATCTTCAAAGCCAGCAATGGCAGGTCCA, for which the binding signal (log2 normalized intensity) was determined as 1.81. To ATAGTCATTCTTCTACAGTGTTTACCGGAT belongs 1.9; to AGTGCTATCCCTGGAGCCTTAGAAGATGAC, -1.35; to TTCAGGGAGACTTCCAGGGAATAAAGAACT, -1.34. In the case of GGGTCAAGAAGACCTGGGCTCAAATCTGGA, the binding signal (log2 normalized intensity) was -1.22. Consider CCTATTCTGAAGATTGCTAGCTGAGAGACT, for which the binding signal (log2 normalized intensity) is -1.35. Turning to CATGAATCCATCCCACCTCACTTATCACAT, the binding signal (log2 normalized intensity) is 0.977. The value for AATCCTCCACTCTCCAAAATAGGGTAGTTT was 0.954; that for TATTAGGAAATTGTCAGTGCCCTATACAGA was 1.32; that for AAGGGTCCAGATTAGAGCACAATGTGGGGA was 0.419. Turning to AGAGGTATCATGAGGTATATTCAACCCCCA, the binding signal (log2 normalized intensity) worked out at 4.45. As to GGGCTGGGGAAACAAAATAATAGTTGACCT, the binding signal (log2 normalized intensity) came to 4.83.

Turning to CATGTTTGGGTCACAATCACAAATGCCTTC, the binding signal (log2 normalized intensity) was determined as 0.351. With TCCCATGGCTAATCTGTGACTGAGCAGAGA, the binding signal (log2 normalized intensity) is 0.339. As to TTTAATGATGAGTCCAAGTTCCACATCAAG, the binding signal (log2 normalized intensity) was 1.88. To AGCTGTCTGGTTTGACCTTAAGTCAGAAGA belongs 3.88. In the case of TTCCTCAGATGGAATGTGTGCCCGTCACCT, the binding signal (log2 normalized intensity) came out at 1.61. The value for CGTCCGCGGAAGCACACACGAGCTGTGCGC was -1.27; that for TCTTTTTTCTGAAGACCTTCAACTGATTAG was 0.461; that for AAATAGCTGGGTCTCACTCTGACCCCTCCC was 5.09. Take GGTTGTCAGACTGGTGTAGTGGGGAGGGCA: the binding signal (log2 normalized intensity) came out at 1.35.

TTAGAGAACGGGTCAAGAGGGACAAAATGC: the binding signal (log2 normalized intensity) was -1.36. As to TGCATTCCATCAGTAGTATTACCTGCATCT, the binding signal (log2 normalized intensity) came out at 0.719. Consider ATTCTCACCACTAGGAAACTGACCTTTGCT, for which the binding signal (log2 normalized intensity) was determined as 6.07. Turning to TGAGCAGCTGGAGGGGGACTGGAAGGGAGA, the binding signal (log2 normalized intensity) was -1.04.

Consider ACTCCTGCCCCTGTGCAATACTTTCCCTGA, for which the binding signal (log2 normalized intensity) came out at 1.06. For the sequence AGCAGATAAGAACACAAAAAGCCTGAGCAT, the binding signal (log2 normalized intensity) is -1.33. For the sequence ATGAGCCCCCTAAAAAGAAAACTAGATAGT, the binding signal (log2 normalized intensity) stood at 1.51.

For CCCCACTGTTTTACTGGGGCCCATTGTATG, the binding signal (log2 normalized intensity) is 0.682. For TGCTCCAGTAAAAGCTCTACCTGACCTCCC, the binding signal (log2 normalized intensity) was 3.24. As to CACATGGTGTCTTTTGTTGTTGTTAGCTGT, the binding signal (log2 normalized intensity) was 1.92. With TTTGTTACTTACAGACTTTCAACATTATGA, the binding signal (log2 normalized intensity) was 0.613. Regarding AAGTGGACTTTAGAACCCAAATAGACTTAA, the binding signal (log2 normalized intensity) was determined as 4.6. Regarding TCTCCTCTGAACCCTCTTCTCAACTAGGCC, the binding signal (log2 normalized intensity) turned out to be 1.35.

In the case of GATGTCTGCTTCTTGGGTCAAAGTCTCTGG, the binding signal (log2 normalized intensity) came out at 3.97.

As for ACCAGCGTAATTCTGGCTCTTTGAGTGGTT, the binding signal (log2 normalized intensity) turned out to be 0.461. The value for GTAATGACATGCAGTATGGGGACTTTGGAC was 7.1; that for AAGCTGGAAGGACAGCATTCCTGTCTGCGA was -1.36.

AACTAGGGCAGGGACTTTGCCCTTTTTAAT: the binding signal (log2 normalized intensity) was found to be 6.81.

For AAGCTGTGTCAGGCATTGTACTCACTGTTA, the binding signal (log2 normalized intensity) is 0.747. In the case of GAGATAAGTCACCTTATCAAGTCCGAACTC, the binding signal (log2 normalized intensity) turned out to be 1.35. Consider GGAGCCAGGGCCTTTTCAAGGGAGTCCTCC, for which the binding signal (log2 normalized intensity) is -1.18. As to CCGCGCGCAGGGCGGACAGCGCCGCCACCC, the binding signal (log2 normalized intensity) was -1.37. GGTCAAAGGTCAGTTTCTTTAAGACAAGTG: the binding signal (log2 normalized intensity) was determined as 5.86. Turning to AATACCATCATCTCAGGGAGTGCAAACTTC, the binding signal (log2 normalized intensity) came out at 0.837. Take TATCACCCTCCCTATCAGCTACTCATGCTT: the binding signal (log2 normalized intensity) was 0.974.

Regarding TGCAGAGTGTCCCACTTCAGGCAGGAATGC, the binding signal (log2 normalized intensity) is -1.31. As to GTCCCCCACCTGGAATGTGCTCCCGACTGC, the binding signal (log2 normalized intensity) was determined as 3.65. Consider TCCTCACAGTGCAGCACAGCAGCTGACAGA, for which the binding signal (log2 normalized intensity) is -1.25.

In the case of TCAGTTTCTGAGAGTGGCAAGCAGGAGCTG, the binding signal (log2 normalized intensity) was -1.39. Consider GCCTAGCACAGTGCCTGGCATGTGATAGGC, for which the binding signal (log2 normalized intensity) is -1.43. TAAAATAACGACCTTTGGGCTAAAAAGGAA: the binding signal (log2 normalized intensity) amounted to 3.55. In the case of CCCTCTGGTGCTGATGTGTTCGCCCCTAGG, the binding signal (log2 normalized intensity) stood at 1.8. In the case of GATAGGGAGGGGTAAGGGTGGGGGTGGGGA, the binding signal (log2 normalized intensity) was -1.35.

For the sequence CTGAATGGAATGAAGATACTGGATAACCTT, the binding signal (log2 normalized intensity) was found to be 1.09. To TCTTGACCAGGCAAGCTTGACCTTTGATCC belongs 10; to GGTCAGCAATCTCAAAGACTGGAGGTAGAT, -0.761; to CACAGCTCTAGAGGGCTGCTTATCTAGGAT, -1.02.

As for TTTTCTTTTTAATCCTGGATTCCTCCAGCC, the binding signal (log2 normalized intensity) is -1.24. To ACAGTGCAGCACAGCAGCTGACAGATGGTG belongs -1.34; to AATGGGCCTAGGTATTGAGGGAGCAAAGGG, -1.01.

Consider GAAGATTCTTTGGTTGGGAATAACATTGTG, for which the binding signal (log2 normalized intensity) came out at 1.42. For the sequence ACGTAAACAAGTAAGGAAGACAAGACAAGG, the binding signal (log2 normalized intensity) was -1.23. Regarding CCATTACCACATTCTCACCACTAGGAAACT, the binding signal (log2 normalized intensity) was -1.36. To TAGCACTGACCAGCTCCAAAGTCCGCCACT belongs 3.2. To CCCACCTCCACTCTCATAAAAGAGGCCAAT belongs 1.97.
